The supplement of paper PMC7826260
Some of the results follow. The data describe in vitro nicking of single-stranded DNA by Rep domains (1 h at 37 °C, 3 µM enzyme); the outer parts of the 90-letter strands are left off. Values are log2 of uncut reads against the no-enzyme pool; more negative means more cut, near 0 not cut, and no call is made. Shares of all reads are compared, so uncut sequences can rise above 0 when many others are cut.

Tests used:
Test in all cases: uncleaved DNA left, log2 of reads against the no-enzyme library (log2 ratio); higher = less cleavage (more negative = more Rep cleavage of the k-mer); sequences stand for … in CTCGTCCG…ACCGGAGA
[1] = tested on: T1, Rep nickase domain of Muscovy duck circovirus
T1 sequence (residues 1-111 of Rep, tag left off): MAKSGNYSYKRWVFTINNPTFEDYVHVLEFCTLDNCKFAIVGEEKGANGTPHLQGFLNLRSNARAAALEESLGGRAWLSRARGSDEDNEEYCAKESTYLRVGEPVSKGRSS
Protocol: (§1)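 A pool of 90-nt single-stranded DNAs with seven random bases just before the constant AC of the nick site (name = the seven bases) was cut by 3 µM recombinant His6-SUMO-tagged Rep nickase domain (300 nM DNA, 50 mM HEPES pH 8.0, 50 mM NaCl, 1 mM MnCl2, 1 h, 37 °C, three replicates). Uncut DNA was amplified and sequenced.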

[2] = tested on: T2, Rep nickase domain of banana bunchy top virus
T2 sequence (residues 1-94 of Rep, tag left off): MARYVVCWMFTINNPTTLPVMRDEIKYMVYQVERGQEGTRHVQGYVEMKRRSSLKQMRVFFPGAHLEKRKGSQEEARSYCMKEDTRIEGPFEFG
Protocol: as §1

[3] = tested on: T3, Rep nickase domain of cabbage leaf curl virus
T3 sequence (residues 1-116 of Rep, tag left off): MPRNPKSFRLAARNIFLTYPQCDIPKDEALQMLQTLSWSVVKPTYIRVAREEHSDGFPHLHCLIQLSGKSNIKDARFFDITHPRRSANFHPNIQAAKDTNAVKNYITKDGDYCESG
Protocol: as §1

[4] = tested on: T4, Rep nickase domain of chickpea chlorotic dwarf virus
T4 sequence (residues 1-124 of Rep, tag left off): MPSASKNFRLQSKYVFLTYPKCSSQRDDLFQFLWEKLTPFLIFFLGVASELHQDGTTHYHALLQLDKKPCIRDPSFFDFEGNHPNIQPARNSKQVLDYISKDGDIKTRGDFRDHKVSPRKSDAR
Protocol: as §1

[5] = tested on: T5, Rep nickase domain of faba bean necrotic yellows virus
T5 sequence (residues 1-98 of Rep, tag left off): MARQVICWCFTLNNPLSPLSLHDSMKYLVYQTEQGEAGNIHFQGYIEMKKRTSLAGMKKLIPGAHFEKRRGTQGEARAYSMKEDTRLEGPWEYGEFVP
Protocol: as §1

[6] = tested on: T6, Rep nickase domain of maize striate mosaic virus
T6 sequence (residues 1-117 of Rep, tag left off): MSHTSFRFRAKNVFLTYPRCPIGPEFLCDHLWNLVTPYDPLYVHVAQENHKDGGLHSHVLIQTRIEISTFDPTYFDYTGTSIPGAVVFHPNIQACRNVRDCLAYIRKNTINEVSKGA
Protocol: as §1

[7] = tested on: T7, Rep nickase domain of porcine circovirus 2
T7 sequence (residues 2-116 of Rep, tag left off): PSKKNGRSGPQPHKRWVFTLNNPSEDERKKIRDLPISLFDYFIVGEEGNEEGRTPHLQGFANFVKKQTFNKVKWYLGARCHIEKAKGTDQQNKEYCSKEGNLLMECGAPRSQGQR
Protocol: as §1

[8] = tested on: T8, Rep nickase domain of tomato yellow leaf curl virus
T8 sequence (residues 1-136 of Rep, tag left off): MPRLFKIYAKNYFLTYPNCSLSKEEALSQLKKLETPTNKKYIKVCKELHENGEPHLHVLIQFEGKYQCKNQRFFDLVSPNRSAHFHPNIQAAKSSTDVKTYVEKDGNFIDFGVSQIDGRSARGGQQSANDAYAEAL
Protocol: as §1

[9] = tested on: T9, Rep nickase domain of wheat dwarf virus
T9 sequence (residues 1-137 of Rep, tag left off): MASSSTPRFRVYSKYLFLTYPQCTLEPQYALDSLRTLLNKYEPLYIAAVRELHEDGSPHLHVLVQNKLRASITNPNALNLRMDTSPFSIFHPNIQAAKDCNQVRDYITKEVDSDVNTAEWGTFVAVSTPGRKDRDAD
Protocol: as §1

| Sequence | uncleaved DNA left (log2) [1] | uncleaved DNA left (log2) [2] | uncleaved DNA left (log2) [3] | uncleaved DNA left (log2) [4] | uncleaved DNA left (log2) [5] | uncleaved DNA left (log2) [6] | uncleaved DNA left (log2) [7] | uncleaved DNA left (log2) [8] | uncleaved DNA left (log2) [9] |
| --- | --- | --- | --- | --- | --- | --- | --- | --- | --- |
| AAGTCAG | 0.0488 | 0.0636 | -0.516 | -0.692 | 0.028 | -1.08 | -0.0547 | 0.0249 | 0.0198 |
| ACATGAC | -0.0872 | 0.017 | -0.293 | -0.0319 | 0.0256 | -0.744 | 0.158 | -0.08 | -0.0198 |
| AAGCTTC | 0.021 | -0.0467 | 0.11 | -0.142 | -0.125 | 0.118 | -0.207 | -0.0606 | -0.0238 |
| ACCGGTA | -0.188 | -0.0497 | 0.049 | -0.00702 | -0.0356 | -0.387 | -0.0485 | -0.199 | -0.128 |
| CGCACGT | -0.000109 | 0.0612 | 0.0937 | 0.224 | 0.0103 | 0.193 | 0.139 | 0.0519 | 0.126 |
| GTTAGAG | 0.0238 | -0.0561 | -0.136 | 0.0718 | -0.0325 | -0.52 | 0.0857 | 0.0644 | 0.0106 |
| ACGCGAC | 0.0517 | -0.0389 | -0.312 | 0.0493 | -0.0135 | -0.815 | 0.161 | 0.0694 | -0.0622 |
| TGGTTTA | -0.129 | -0.0897 | 0.22 | -0.0806 | 0.0517 | 0.826 | -0.107 | 0.00831 | 0.0866 |
| GCAATGA | 0.113 | 0.0393 | -0.0714 | 0.341 | 0.0972 | -0.31 | 0.112 | 0.0418 | -0.0826 |
| CGGAATC | -0.0625 | -0.0898 | 0.0854 | 0.546 | -0.123 | 0.246 | -0.0981 | -0.0855 | 0.0506 |
| GCGGGCG | -0.0724 | 0.0204 | -0.572 | 0.0316 | -0.00226 | -0.321 | 0.114 | 0.054 | -0.0832 |
| CTCAACT | -0.0249 | 0.0266 | -0.325 | -2.7 | 0.00688 | -0.809 | -0.206 | -0.0126 | 0.0744 |
| TGCCCTT | 0.167 | 0.0646 | 0.784 | 0.993 | 0.0849 | 1.76 | -0.107 | 0.097 | 0.132 |
| CTGAGCC | 0.0792 | 0.0871 | 0.0165 | 0.148 | 0.0602 | -0.259 | 0.0777 | -0.0147 | 0.0916 |
| ATTGTCG | 0.0515 | 0.0234 | -0.527 | 1.03 | 0.0476 | -0.105 | 0.0454 | 0.0587 | -0.151 |
| CTTCACT | -0.194 | -0.142 | -0.359 | -2.38 | -0.125 | -0.963 | -0.888 | -0.0657 | -0.0658 |
| TGATAGG | 0.235 | 0.0978 | 0.368 | 1.09 | -0.084 | 1.08 | 0.172 | -0.0075 | 0.121 |
| CCCTCGT | -0.0242 | -0.0585 | -0.366 | -0.84 | 0.156 | -0.834 | -0.203 | -0.0382 | -0.0621 |
| TTGGTCT | 0.128 | 0.0157 | 0.0944 | -1.15 | 0.0841 | -0.0827 | 0.0358 | 0.115 | 0.0755 |
| ACTTGTT | -3.1 | -1.34 | -0.744 | -2.52 | 0.0488 | -0.874 | -3.64 | 0.0179 | -0.48 |
| AACCCAT | -0.0392 | 0.0359 | 0.114 | -1.82 | 0.0343 | -0.0246 | -0.378 | 0.209 | 0.1 |
| TCTTCCG | -0.0869 | -0.0806 | -0.904 | -0.51 | -0.0239 | -1.09 | 0.186 | -0.13 | -0.188 |
| TGCTAAA | -0.0945 | -0.0802 | -0.109 | -0.167 | -0.0768 | -0.597 | -0.176 | -0.0444 | -0.0633 |
| GAATGCA | -0.179 | -0.0157 | -0.537 | -0.95 | 0.0317 | -0.856 | -0.717 | 0.116 | -0.0821 |
| ACCGGGG | -0.028 | 0.0307 | 0.76 | 1.25 | -0.025 | 2.11 | 0.163 | -0.526 | 0.0593 |
| CGTCACC | 0.0237 | 0.0155 | 0.0925 | -0.0402 | 0.0149 | -0.0902 | -0.0545 | -0.00969 | 0.0673 |
| AGACATA | -0.0278 | 0.0567 | 0.562 | 1.04 | 0.0729 | 1.85 | 0.0203 | 0.0751 | 0.12 |
| AGATGGT | -0.246 | 0.0192 | -0.0389 | 0.522 | -0.0824 | 1.09 | -1.6 | -0.105 | -0.137 |
| GTAGAGT | 0.12 | 0.0878 | 0.27 | 0.77 | 0.00875 | 1.17 | 0.086 | 0.113 | 0.137 |
| AGAAAGA | 0.0691 | 0.0683 | 0.0829 | 0.213 | 0.0376 | -0.747 | 0.124 | 0.0814 | 0.0247 |
